# According to article PMC11995724, “Antibiotic target discovery by integrated phenotypic and activity-based profiling of electrophilic fragments” (Cell chemical biology, 2025):
# Out of some 3,200 compounds screened, about 75 (2%) showed an effect of 50% or more. The list shows a part of the results.
# Test system: T1, S. aureus MSSA476
# T1 construct: MSSA476
# Parameters: species or system S. aureus MSSA476 (TSB) or V. cholerae SAD30 (LB); 384-well bacterial growth screen at 25 uM, OD600 relative to DMSO control
# Details: relative growth, OD600, TSB; 25 µM; inhibitor
row,SMILES,% of control remaining [%]
1,"CC(Cl)C(=O)NCc1ccon1 (stereo not shown) [7-I13, 2-chloro-N-[(1,2-oxazol-3-yl)methyl]propanamide]",91.6797
2,"C=CC(=O)N(CC)Cc1nc2ccsc2c(=O)[nH]1 [3-P16, N-ethyl-N-({4-oxo-3H,4H-thieno[3,2-d]pyrimidin-2-yl}methyl)prop-2-enamide]",82.1942
3,"O=C(CCl)Nc1c(F)c(F)c(F)c(F)c1F [4-L08, 2-chloro-N-(2,3,4,5,6-pentafluorophenyl)acetamide]",104.05
4,"O=C(CCl)NOCc1ccccc1 [4-H22, N-(benzyloxy)-2-chloroacetamide]",101
5,"C=CC(=O)N1CC(C)c2ccc(S(N)(=O)=O)cc21 (stereo not shown) [3-L16, 3-methyl-1-(prop-2-enoyl)-2,3-dihydro-1H-indole-6-sulfonamide]",119.112
6,"C=CC(=O)N1CCCC1(COC)C(N)=O (stereo not shown) [3-K07, 2-(methoxymethyl)-1-(prop-2-enoyl)pyrrolidine-2-carboxamide]",97.5185
7,"C=CC(=O)N1CCC(C(=O)NC2(Cc3ccccc3)CCCC2)CC1 [3-H12, N-(1-benzylcyclopentyl)-1-(prop-2-enoyl)piperidine-4-carboxamide]",74.532
8,"C=CC(=O)N1CCC(C(=O)NC2(c3ccc(F)cc3F)CCC2)CC1 [3-M04, N-[1-(2,4-difluorophenyl)cyclobutyl]-1-(prop-2-enoyl)piperidine-4-carboxamide]",92.6426
9,"N#CC(=Cc1cccc(Oc2ccccc2)c1)C(=O)N1CCCC1 [9-F06, 3-(3-phenoxyphenyl)-2-(pyrrolidine-1-carbonyl)prop-2-enenitrile]",114.157
10,"C=CC(=O)NC(c1nccs1)C(F)(F)F (stereo not shown) [2-N07, N-[2,2,2-trifluoro-1-(1,3-thiazol-2-yl)ethyl]prop-2-enamide]",101.305
11,"COc1ccc(OC)c(-c2csc(NC(=O)CCl)n2)c1 [4-H12, 2-chloro-N-[4-(2,5-dimethoxyphenyl)-1,3-thiazol-2-yl]acetamide]",86.8985
12,"CC(Cl)C(=O)N1CC(c2cc(CO)on2)C1 (stereo not shown) [7-M10, 2-chloro-1-{3-[5-(hydroxymethyl)-1,2-oxazol-3-yl]azetidin-1-yl}propan-1-one]",93.2496
13,"C=CC(=O)N(Cc1cc2ccccn2n1)CC1(O)CCCCC1 [1-H15, N-[(1-hydroxycyclohexyl)methyl]-N-({pyrazolo[1,5-a]pyridin-2-yl}methyl)prop-2-enamide]",113.934
14,"O=C(CCl)Nc1cc(Cl)cc(Cl)c1 [4-K09, 2-chloro-N-(3,5-dichlorophenyl)acetamide]",77.7513
15,"O=C(Cc1cccc(F)c1)N1CCSSCC1 [10-L21, 1-(1,2,5-dithiazepan-5-yl)-2-(3-fluorophenyl)ethan-1-one]",106.25
16,"O=C(CCl)Cc1ccc(Cl)c(Cl)c1 [10-E15, 1-chloro-3-(3,4-dichlorophenyl)propan-2-one]",111.25

row,SMILES,% of control remaining [%]
1,"COc1ccc(S(N)(=O)=O)cc1NC(=O)CCl [6-O03, 2-chloro-N-(2-methoxy-5-sulfamoylphenyl)acetamide]",101.073
2,"CC(Cl)C(=O)Nc1ccc(N(C)C)cc1.Cl (stereo not shown) [5-N04, 2-chloro-N-[4-(dimethylamino)phenyl]propanamide hydrochloride]",77.2313
3,"Cc1ccc(C=C(C#N)C(=O)Nc2cc(Cl)ccc2Cl)s1 [9-E19, 2-cyano-N-(2,5-dichlorophenyl)-3-(5-methylthiophen-2-yl)prop-2-enamide]",104.27
4,"COc1cccc(NC(=O)C(C#N)=Cc2ccc([N+](=O)[O-])o2)c1 [8-A19, 2-cyano-N-(3-methoxyphenyl)-3-(5-nitrofuran-2-yl)prop-2-enamide]",99.2531
5,"C=CC(=O)NC(Cn1ccnc1)c1ccccc1 (stereo not shown) [2-M06, N-[2-(1H-imidazol-1-yl)-1-phenylethyl]prop-2-enamide]",90.8616
6,"O=C(CCl)N1CCCCc2ccc([N+](=O)[O-])cc21 [5-I18, 2-chloro-1-(8-nitro-2,3,4,5-tetrahydro-1H-1-benzazepin-1-yl)ethan-1-one]",104.189
7,"C=CC(=O)N1CCC(C(=O)N2CCCC(C3OCCO3)C2)CC1 (stereo not shown) [2-L16, 1-{4-[3-(1,3-dioxolan-2-yl)piperidine-1-carbonyl]piperidin-1-yl}prop-2-en-1-one]",110.705
8,"C[C@@H](NC(=O)CCl)c1ccccc1 [6-O20, 2-chloro-N-[(1R)-1-phenylethyl]acetamide]",101.415
9,"O=C(CCl)c1c[nH]c2ccccc12 [10-B05, 2-chloro-1-(1H-indol-3-yl)ethan-1-one]",89.375
10,"O=C(CCl)Nc1ccccc1SCc1ccccc1 [4-J05, N-[2-(benzylsulfanyl)phenyl]-2-chloroacetamide]",95.2835
11,"CC(Cl)C(=O)NC1(c2nnc[nH]2)CCC1 (stereo not shown) [6-F21, 2-chloro-N-[1-(4H-1,2,4-triazol-3-yl)cyclobutyl]propanamide]",102.78
12,"C=CC(=O)N1CCC(C(=O)NCCc2cc[nH]n2)CC1 [3-E07, 1-(prop-2-enoyl)-N-[2-(1H-pyrazol-3-yl)ethyl]piperidine-4-carboxamide]",111.101
13,"O=C(CCl)NCCCc1ccccc1 [4-N04, 2-chloro-N-(3-phenylpropyl)acetamide]",77.7513
14,"Cc1ccc(C=C(C#N)C(=O)Nc2cccc3ncccc23)cc1 [9-J05, 2-cyano-3-(4-methylphenyl)-N-(quinolin-5-yl)prop-2-enamide]",115.955
15,"C=CC(=O)NC1CCOc2c(F)cccc21 (stereo not shown) [1-D05, N-(8-fluoro-3,4-dihydro-2H-1-benzopyran-4-yl)prop-2-enamide]",100.22
